# In all, about 3,200 compounds went through this assay and about 75 (2%) showed an effect of 50% or more. The list shows a part of the results.
# Test system: T1, S. aureus MSSA476
# T1 construct: MSSA476
# Parameters: species or system S. aureus MSSA476 (TSB) or V. cholerae SAD30 (LB); 384-well bacterial growth screen at 25 uM, OD600 relative to DMSO control
# Details: relative growth, OD600, TSB; 25 µM; inhibitor
row,Compound,% of control remaining
1,"O=C(CCl)NCC1CCCCC1 [5-J06, 2-chloro-N-(cyclohexylmethyl)acetamide]",99.4536%
2,"CS(=O)(=O)Nc1ccc(C(=O)CCl)cc1 [10-D19, N-[4-(2-chloroacetyl)phenyl]methanesulfonamide]",28.125%
3,"C=CCNC(=O)C(C#N)=Cc1cccc(C)c1 [8-D05, 2-cyano-3-(3-methylphenyl)-N-(prop-2-en-1-yl)prop-2-enamide]",115.519%
4,"C=CC(=O)N1CCC(C(=O)N[C@H]2CC[C@@H](S(C)(=O)=O)CC2)CC1 [2-J08, 1-(prop-2-enoyl)-N-[(1s,4s)-4-methanesulfonylcyclohexyl]piperidine-4-carboxamide]",108.964%
5,"O=C(CCl)NC1CCCN(Cc2ccccc2)C1=O (centres unmarked) [7-J10, N-(1-benzyl-2-oxopiperidin-3-yl)-2-chloroacetamide]",84.7724%
6,"C=CC(=O)N1CCC[C@H]1c1ccon1 [2-G03, 1-[(2S)-2-(1,2-oxazol-3-yl)pyrrolidin-1-yl]prop-2-en-1-one]",111.749%
7,"C=CCNC(=O)C(C#N)=Cc1ccccc1[N+](=O)[O-] [8-E09, 2-cyano-3-(2-nitrophenyl)-N-(prop-2-en-1-yl)prop-2-enamide]",109.876%
8,"O=C(CCl)NCc1ccnn1C1CCCC1 [7-H08, 2-chloro-N-[(1-cyclopentyl-1H-pyrazol-5-yl)methyl]acetamide]",84.4584%
9,"CCN(Cc1ccc(Cl)s1)C(=O)CCl [6-M11, 2-chloro-N-[(5-chlorothiophen-2-yl)methyl]-N-ethylacetamide]",94.5854%
10,"CC(=O)NCCc1ccc(C(=O)CCl)s1 [10-P03, N-{2-[5-(2-chloroacetyl)thiophen-2-yl]ethyl}acetamide]",143.125%
11,"CC(CO)N(Cc1ccccc1Cl)C(=O)CCl (centres unmarked) [6-D17, 2-chloro-N-[(2-chlorophenyl)methyl]-N-(1-hydroxypropan-2-yl)acetamide]",123.268%
12,"CC(Cl)C(=O)NC(C)c1ccn(C)n1 (centres unmarked) [6-B16, 2-chloro-N-[1-(1-methyl-1H-pyrazol-3-yl)ethyl]propanamide]",103.805%
13,"C=CC(=O)NCC(=O)c1scc(C)c1Cl [1-D16, N-[2-(3-chloro-4-methylthiophen-2-yl)-2-oxoethyl]prop-2-enamide]",113.231%
14,"COc1cc(C=C(C#N)C(=O)Nc2cccc(Cl)c2)cc(O)c1O [9-G20, N-(3-chlorophenyl)-2-cyano-3-(3,4-dihydroxy-5-methoxyphenyl)prop-2-enamide]",81.1985%
15,"Cc1ccc(NC(=O)C(C#N)=CC2=Cc3ccccc3OC2)cc1 [9-B19, 3-(2H-chromen-3-yl)-2-cyano-N-(4-methylphenyl)prop-2-enamide]",88.3895%
16,"C=CC(=O)Nc1ccccc1Sc1nncs1 [1-G04, N-[2-(1,3,4-thiadiazol-2-ylsulfanyl)phenyl]prop-2-enamide]",98.1099%
17,"CCc1ccc(C(=O)CCl)cc1 [10-F18, 2-chloro-1-(4-ethylphenyl)ethan-1-one]",102.188%
18,"C=CC(=O)N1CCC(C(=O)NC2CC2(C)C)CC1 (centres unmarked) [3-C07, N-(2,2-dimethylcyclopropyl)-1-(prop-2-enoyl)piperidine-4-carboxamide]",92.2943%
19,"CCCC(=O)Nc1ccc(C(=O)C(C)Cl)cc1 (centres unmarked) [10-O06, N-[4-(2-chloropropanoyl)phenyl]butanamide]",121.875%
20,"CC(Cl)C(=O)N1CCCC1CC(=O)c1cnn(C)c1 (centres unmarked) [6-D16, 2-chloro-1-{2-[2-(1-methyl-1H-pyrazol-4-yl)-2-oxoethyl]pyrrolidin-1-yl}propan-1-one]",98.6829%
21,"O=C(CCl)NC1CCS(=O)(=O)CC1 [6-M08, 2-chloro-N-(1,1-dioxo-1lambda6-thian-4-yl)acetamide]",112%
22,"COc1ccc(N(C(=O)CCl)C2CCS(=O)(=O)C2)cc1 (centres unmarked) [5-I20, 2-chloro-N-(1,1-dioxo-1lambda6-thiolan-3-yl)-N-(4-methoxyphenyl)acetamide]",89.2532%
23,"CC(Cl)C(=O)N(Cc1ccccc1)C1C=CS(=O)(=O)C1 (centres unmarked) [6-D22, N-benzyl-2-chloro-N-(1,1-dioxo-2,3-dihydro-1lambda6-thiophen-3-yl)propanamide]",108.244%
24,"O=C(CCl)Nc1cccc(OCc2ccccc2)c1 [5-I04, N-[3-(benzyloxy)phenyl]-2-chloroacetamide]",56.4663%

row,Compound,% of control remaining
1,"C=CC(=O)NC(C)Cn1nc(C)cc1C (centres unmarked) [1-F10, N-[1-(3,5-dimethyl-1H-pyrazol-1-yl)propan-2-yl]prop-2-enamide]",100.923%
2,"N#CC(=Cc1cnn(Cc2ccccc2)c1)C(=O)NC1CCCC1 [9-O14, 3-(1-benzyl-1H-pyrazol-4-yl)-2-cyano-N-cyclopentylprop-2-enamide]",93.4831%
3,"C=CC(NC(=O)CCl)C1CCOCC1 (centres unmarked) [5-N13, 2-chloro-N-[1-(oxan-4-yl)prop-2-en-1-yl]acetamide]",105.647%
4,"Cc1cc(C)c(C(=O)CCl)c(C)c1 [10-C08, 2-chloro-1-(2,4,6-trimethylphenyl)ethan-1-one]",115.625%
5,"CC(C)(C)c1ccc(C=C(C#N)C(=O)NCc2ccco2)cc1 [8-L14, 3-(4-tert-butylphenyl)-2-cyano-N-[(furan-2-yl)methyl]prop-2-enamide]",93.61%
6,"CN(C)S(=O)(=O)c1cccc(NC(=O)CCl)c1 [4-J08, 2-chloro-N-[3-(dimethylsulfamoyl)phenyl]acetamide]",96.4269%
7,"C=CC(=O)N(C)Cc1conc1CC [2-O15, N-[(3-ethyl-1,2-oxazol-4-yl)methyl]-N-methylprop-2-enamide]",90.8616%
8,"CC(NC(=O)CCl)c1nnc(-c2cccc(F)c2)s1 (centres unmarked) [5-F13, 2-chloro-N-{1-[5-(3-fluorophenyl)-1,3,4-thiadiazol-2-yl]ethyl}acetamide]",114.754%
9,"O=C(CCl)NCc1ccc(NC(=O)C2CC2)cc1 [6-E20, N-{4-[(2-chloroacetamido)methyl]phenyl}cyclopropanecarboxamide]",109.951%
10,"O=C(CCl)Nc1cc(Cl)ccc1Oc1ccccc1 [5-G19, 2-chloro-N-(5-chloro-2-phenoxyphenyl)acetamide]",67.031%
11,"C=CC(=O)NCCn1cnc2ccsc2c1=O [2-N15, N-(2-{4-oxo-3H,4H-thieno[3,2-d]pyrimidin-3-yl}ethyl)prop-2-enamide]",127.763%
12,"Cc1ccccc1NC(=O)C(C#N)=Cc1ccc(N2CCCCC2)cc1 [9-E21, 2-cyano-N-(2-methylphenyl)-3-[4-(piperidin-1-yl)phenyl]prop-2-enamide]",111.161%
13,"CCOc1ccccc1NC(=O)C(C#N)=Cc1c(C)[nH]c2ccccc12 [9-A06, 2-cyano-N-(2-ethoxyphenyl)-3-(2-methyl-1H-indol-3-yl)prop-2-enamide]",85.3933%
14,"CCOc1ccccc1NC(=O)C(C#N)=Cc1ccc2c(c1)OCO2 [9-P05, 3-(1,3-dioxaindan-5-yl)-2-cyano-N-(2-ethoxyphenyl)prop-2-enamide]",90.1873%
15,"COc1ccc(Cl)cc1N1C(=O)C=CC1=O [10-K10, 1-(5-chloro-2-methoxyphenyl)-2,5-dihydro-1H-pyrrole-2,5-dione]",104.375%
16,"C=CC(=O)NCc1ccc(C(=O)N2CCC(c3ccn[nH]3)CC2)cc1 [3-K08, N-({4-[4-(1H-pyrazol-5-yl)piperidine-1-carbonyl]phenyl}methyl)prop-2-enamide]",99.6082%
17,"C=CC(=O)N(Cc1nonc1C)CC1C(C)=CCCC1C (centres unmarked) [1-F15, N-[(2,6-dimethylcyclohex-2-en-1-yl)methyl]-N-[(4-methyl-1,2,5-oxadiazol-3-yl)methyl]prop-2-enamide]",96.7033%
18,"CCOC(=O)c1c(C)[nH]c(C(=O)C(C)Cl)c1C (centres unmarked) [10-B22, ethyl 5-(2-chloropropanoyl)-2,4-dimethyl-1H-pyrrole-3-carboxylate]",130%
19,"COc1cc(Cl)c(C)cc1NC(=O)C(C)Cl (centres unmarked) [6-C15, 2-chloro-N-(4-chloro-2-methoxy-5-methylphenyl)propanamide]",100.732%
20,"C=CC(=O)N1CCC(C(=O)NCc2cccc(Cl)c2F)CC1 [3-N12, N-[(3-chloro-2-fluorophenyl)methyl]-1-(prop-2-enoyl)piperidine-4-carboxamide]",95.4288%
21,"C=CC(=O)NCC1=NOCC1 [3-G16, N-[(4,5-dihydro-1,2-oxazol-3-yl)methyl]prop-2-enamide]",95.7771%
22,"CC(Cl)C(=O)NC(C)c1cnn(CC2CCC2)c1 (centres unmarked) [5-L15, 2-chloro-N-{1-[1-(cyclobutylmethyl)-1H-pyrazol-4-yl]ethyl}propanamide]",97.2678%
23,"COc1ccc(C=C(C#N)C(=O)Nc2cc(C)ccc2C)cc1Cl [9-B22, 3-(3-chloro-4-methoxyphenyl)-2-cyano-N-(2,5-dimethylphenyl)prop-2-enamide]",103.071%

# Reference: PMC11995724, “Antibiotic target discovery by integrated phenotypic and activity-based profiling of electrophilic fragments” (Cell chemical biology, 2025)
